Measured values as given in publication PMC3960075 (ACS chemical biology, 2012).

Target: bovine serum albumin (BSA) (Bos taurus, UniProt P02769)
Assay: Direct binding FP specificity control with BSA
Settings: BSA 2-fold serial dilutions from 100 μM, 4 at 60 nM

`O=C(O)/C(O)=C/C(=O)C1(Cc2ccc(Cl)cc2)CCN(C(=O)c2ccc(-c3c4ccc(=O)cc-4oc4cc(O)ccc34)c(C(=O)O)c2)CC1` [Compound 4] was tested, and the “Non-specific binding to BSA” value was “not observed”.
